The other results are listed elsewhere or left out. Most values come without repeats; read them as rough.
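Also: cells treated in 1,536-well plates, then fixed and DAPI-stained, with nuclei counted from automated high-throughput microscope images.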

The experiment has as its system UACC62. The experiment in a line: cell count relative to DMSO control; melanoma cells; higher = more viable cells. The settings on record: library dose: standard library concentration; 72 h.
In turn, `CCN(CC)CCNC(=O)c1c(C)[nH]c(/C=C2\C(=O)Nc3ccc(F)cc32)c1C` [sunitinib] + CC1(C)NC(=O)N(c2ccc([N+](=O)[O-])c(C(F)(F)F)c2)C1=O [nilutamide] (first compound 2 µM, partner dose 5 µM) showed a cell count of 71.5%.

`Cn1cnc2c(F)c(Nc3ccc(Br)cc3Cl)c(C(=O)NOCCO)cc21` [selumetinib] + CO[C@@H]1[C@H](N(C)C(=O)c2ccccc2)C[C@H]2O[C@]1(C)n1c3ccccc3c3c4c(c5c6ccccc6n2c5c31)C(=O)NC4 [Midostaurin] (first compound 0.075 µM, partner dose 0.4 µM) showed a cell count of 69.2%.

As to `COc1cc([C@@H]2c3cc4c(cc3[C@@H](O[C@@H]3O[C@@H]5CO[C@@H](C)O[C@H]5[C@H](O)[C@H]3O)[C@H]3COC(=O)[C@H]23)OCO4)cc(OC)c1O` [etoposide] + Cc1cc(N2CCOCC2)cc2[nH]c(-c3c(NC[C@@H](O)c4cccc(Cl)c4)cc[nH]c3=O)nc12 [BMS536924] (first compound 0.1 µM, partner dose 1 µM), the cell count stood at 86.9%.

`Cn1cnc2c(F)c(Nc3ccc(Br)cc3Cl)c(C(=O)NOCCO)cc21` [selumetinib] + C=CCn1c(=O)c2cnc(Nc3ccc(N4CCN(C)CC4)cc3)nc2n1-c1cccc(C(C)(C)O)n1 [MK1775] (first compound 0.075 µM, partner dose 0.1 µM) had a cell count of 50.6%.

`COc1cc([C@@H]2c3cc4c(cc3[C@@H](O[C@@H]3O[C@@H]5CO[C@@H](C)O[C@H]5[C@H](O)[C@H]3O)[C@H]3COC(=O)[C@H]23)OCO4)cc(OC)c1O` [etoposide] + CO[C@@H]1[C@H](N(C)C(=O)c2ccccc2)C[C@H]2O[C@]1(C)n1c3ccccc3c3c4c(c5c6ccccc6n2c5c31)C(=O)NC4 [Midostaurin] (first compound 0.1 µM, partner dose 0.4 µM) yielded a cell count of 67%.

`CCN(CC)CCNC(=O)c1c(C)[nH]c(/C=C2\C(=O)Nc3ccc(F)cc32)c1C` [sunitinib] + C[C@@H]1CCN(C(=O)CC#N)C[C@@H]1N(C)c1ncnc2[nH]ccc12 [CP690550] (first compound 2 µM, partner dose 5 µM) yielded a cell count of 61.9%.

As for `COc1cc([C@@H]2c3cc4c(cc3[C@@H](O[C@@H]3O[C@@H]5CO[C@@H](C)O[C@H]5[C@H](O)[C@H]3O)[C@H]3COC(=O)[C@H]23)OCO4)cc(OC)c1O` [etoposide] + Nc1ccn([C@@H]2O[C@H](CO)[C@@H](O)C2(F)F)c(=O)n1 [gemcitabine] (first compound 0.1 µM, partner dose 0.002 µM), the cell count is 75.2%.

`COc1cc([C@@H]2c3cc4c(cc3[C@@H](O[C@@H]3O[C@@H]5CO[C@@H](C)O[C@H]5[C@H](O)[C@H]3O)[C@H]3COC(=O)[C@H]23)OCO4)cc(OC)c1O` [etoposide] + C=CCn1c(=O)c2cnc(Nc3ccc(N4CCN(C)CC4)cc3)nc2n1-c1cccc(C(C)(C)O)n1 [MK1775] (first compound 0.1 µM, partner dose 0.1 µM) yielded a cell count of 75.5%.

Consider `C[C@]1(O)C[C@@H](c2nc(-c3ccc4ccc(-c5ccccc5)nc4c3)c3c(N)nccn32)C1` + Cc1cc(N2CCOCC2)cc2[nH]c(-c3c(NC[C@@H](O)c4cccc(Cl)c4)cc[nH]c3=O)nc12 [BMS536924] (first compound 2 µM, partner dose 1 µM), for which the cell count was found to be 105%.

`Cn1cnc2c(F)c(Nc3ccc(Br)cc3Cl)c(C(=O)NOCCO)cc21` [selumetinib] + O=C(CCCCCCC(=O)Nc1ccccc1)NO [vorinostat] (first compound 0.075 µM, partner dose 0.4 µM) gave a cell count of 61.2%.

`Cn1cnc2c(F)c(Nc3ccc(Br)cc3Cl)c(C(=O)NOCCO)cc21` [selumetinib] + CC(C)(C)c1cnc(CSc2cnc(NC(=O)C3CCNCC3)s2)o1 [SNS-032] (first compound 0.075 µM, partner dose 0.05 µM) yielded a cell count of 50.4%.

`COc1cc([C@@H]2c3cc4c(cc3[C@@H](O[C@@H]3O[C@@H]5CO[C@@H](C)O[C@H]5[C@H](O)[C@H]3O)[C@H]3COC(=O)[C@H]23)OCO4)cc(OC)c1O` [etoposide] + Cc1ccc(NC(=O)c2cccc(N(C)C)c2)cc1NC(=O)c1ccc(O)cc1 [ZM336372] (first compound 0.1 µM, partner dose 10 µM) returned a cell count of 73.9%.

Consider `Cn1cnc2c(F)c(Nc3ccc(Br)cc3Cl)c(C(=O)NOCCO)cc21` [selumetinib] + COc1cc2c(Oc3ccc4[nH]c(C)cc4c3F)ncnc2cc1OCCCN1CCCC1 [cediranib] (first compound 0.075 µM, partner dose 2 µM), for which the cell count is 62.8%.

`COc1cc([C@@H]2c3cc4c(cc3[C@@H](O[C@@H]3O[C@@H]5CO[C@@H](C)O[C@H]5[C@H](O)[C@H]3O)[C@H]3COC(=O)[C@H]23)OCO4)cc(OC)c1O` [etoposide] + CN(C)S(=O)(=O)c1ccc2c(c1)/C(=C/c1cc3c([nH]1)CCCC3)C(=O)N2 [SU6656] (first compound 0.1 µM, partner dose 2 µM): the cell count was determined as 67.9%.

`COc1cc([C@@H]2c3cc4c(cc3[C@@H](O[C@@H]3O[C@@H]5CO[C@@H](C)O[C@H]5[C@H](O)[C@H]3O)[C@H]3COC(=O)[C@H]23)OCO4)cc(OC)c1O` [etoposide] + CCCS(=O)(=O)Nc1ccc(F)c(C(=O)c2c[nH]c3ncc(Cl)cc23)c1F [PLX4720] (first compound 0.1 µM, partner dose 0.4 µM) showed a cell count of 52.1%.

Molecule `Cn1cnc2c(F)c(Nc3ccc(Br)cc3Cl)c(C(=O)NOCCO)cc21` [selumetinib] + CN(NC(=O)CC(=O)NN(C)C(=S)c1ccccc1)C(=S)c1ccccc1 [STA4783] (first compound 0.075 µM, partner dose 0.03 µM) showed a cell count of 24.5%.

With `CCN(CC)CCNC(=O)c1c(C)[nH]c(/C=C2\C(=O)Nc3ccc(F)cc32)c1C` [sunitinib] + O=C(CCCCCCC(=O)Nc1ccccc1)NO [vorinostat] (first compound 2 µM, partner dose 0.4 µM), the cell count was 66.7%.

Molecule `COc1cc([C@@H]2c3cc4c(cc3[C@@H](O[C@@H]3O[C@@H]5CO[C@@H](C)O[C@H]5[C@H](O)[C@H]3O)[C@H]3COC(=O)[C@H]23)OCO4)cc(OC)c1O` [etoposide] + C[C@@H]1CCN(C(=O)CC#N)C[C@@H]1N(C)c1ncnc2[nH]ccc12 [CP690550] (first compound 0.1 µM, partner dose 5 µM) registered a cell count of 81.2%.

Molecule `CCN(CC)CCNC(=O)c1c(C)[nH]c(/C=C2\C(=O)Nc3ccc(F)cc32)c1C` [sunitinib] + COc1cc(Nc2ncc(F)c(Nc3ccc4c(n3)NC(=O)C(C)(C)O4)n2)cc(OC)c1OC [Tamatinib] (first compound 2 µM, partner dose 2 µM) came in with a cell count of 69%.

Turning to `COc1cc([C@@H]2c3cc4c(cc3[C@@H](O[C@@H]3O[C@@H]5CO[C@@H](C)O[C@H]5[C@H](O)[C@H]3O)[C@H]3COC(=O)[C@H]23)OCO4)cc(OC)c1O` [etoposide] + OCCn1cc(-c2cnc3nnn(Cc4ccc5ncccc5c4)c3n2)cn1 [PF04217903] (first compound 0.1 µM, partner dose 5 µM), the cell count was 80.4%.

The molecule `C[C@]1(O)C[C@@H](c2nc(-c3ccc4ccc(-c5ccccc5)nc4c3)c3c(N)nccn32)C1` + CN(C)S(=O)(=O)c1ccc2c(c1)/C(=C/c1cc3c([nH]1)CCCC3)C(=O)N2 [SU6656] (first compound 2 µM, partner dose 2 µM) gave a cell count of 59.1%.

`C[C@]1(O)C[C@@H](c2nc(-c3ccc4ccc(-c5ccccc5)nc4c3)c3c(N)nccn32)C1` + COc1cc2c(Oc3ccc4[nH]c(C)cc4c3F)ncnc2cc1OCCCN1CCCC1 [cediranib] (first compound 2 µM, partner dose 2 µM) registered a cell count of 88.3%.

For `CCN(CC)CCNC(=O)c1c(C)[nH]c(/C=C2\C(=O)Nc3ccc(F)cc32)c1C` [sunitinib] + CO[C@@H]1[C@H](N(C)C(=O)c2ccccc2)C[C@H]2O[C@]1(C)n1c3ccccc3c3c4c(c5c6ccccc6n2c5c31)C(=O)NC4 [Midostaurin] (first compound 2 µM, partner dose 0.4 µM), the cell count stood at 49%.

`COc1cc([C@@H]2c3cc4c(cc3[C@@H](O[C@@H]3O[C@@H]5CO[C@@H](C)O[C@H]5[C@H](O)[C@H]3O)[C@H]3COC(=O)[C@H]23)OCO4)cc(OC)c1O` [etoposide] + CC(C)(C)c1cnc(CSc2cnc(NC(=O)C3CCNCC3)s2)o1 [SNS-032] (first compound 0.1 µM, partner dose 0.05 µM): the cell count was found to be 62.5%.

For `C[C@]1(O)C[C@@H](c2nc(-c3ccc4ccc(-c5ccccc5)nc4c3)c3c(N)nccn32)C1` + C=CCn1c(=O)c2cnc(Nc3ccc(N4CCN(C)CC4)cc3)nc2n1-c1cccc(C(C)(C)O)n1 [MK1775] (first compound 2 µM, partner dose 0.1 µM), the cell count came out at 49.8%.

As for `COc1cc([C@@H]2c3cc4c(cc3[C@@H](O[C@@H]3O[C@@H]5CO[C@@H](C)O[C@H]5[C@H](O)[C@H]3O)[C@H]3COC(=O)[C@H]23)OCO4)cc(OC)c1O` [etoposide] + O=C(CCCCCCC(=O)Nc1ccccc1)NO [vorinostat] (first compound 0.1 µM, partner dose 0.4 µM), the cell count came to 79.7%.
